# Assay results reported in publication PMC4336329 (PLoS ONE, 2015).
# Hit rate of the full screen: of about 310,000 compounds, about 2,200 (0.71%) showed an effect of 50% or more. Effects have a minus sign here. The list shows a part of the results.
# Target: human ether-à-go-go-related gene (hERG) potassium channel (human, UniProt Q12809)
# Assay: primary screen, population patch clamp on CHO cells stably expressing hERG
# Sequence of human ether-à-go-go-related gene (hERG) potassium channel (Q12809 whole entry, looked up): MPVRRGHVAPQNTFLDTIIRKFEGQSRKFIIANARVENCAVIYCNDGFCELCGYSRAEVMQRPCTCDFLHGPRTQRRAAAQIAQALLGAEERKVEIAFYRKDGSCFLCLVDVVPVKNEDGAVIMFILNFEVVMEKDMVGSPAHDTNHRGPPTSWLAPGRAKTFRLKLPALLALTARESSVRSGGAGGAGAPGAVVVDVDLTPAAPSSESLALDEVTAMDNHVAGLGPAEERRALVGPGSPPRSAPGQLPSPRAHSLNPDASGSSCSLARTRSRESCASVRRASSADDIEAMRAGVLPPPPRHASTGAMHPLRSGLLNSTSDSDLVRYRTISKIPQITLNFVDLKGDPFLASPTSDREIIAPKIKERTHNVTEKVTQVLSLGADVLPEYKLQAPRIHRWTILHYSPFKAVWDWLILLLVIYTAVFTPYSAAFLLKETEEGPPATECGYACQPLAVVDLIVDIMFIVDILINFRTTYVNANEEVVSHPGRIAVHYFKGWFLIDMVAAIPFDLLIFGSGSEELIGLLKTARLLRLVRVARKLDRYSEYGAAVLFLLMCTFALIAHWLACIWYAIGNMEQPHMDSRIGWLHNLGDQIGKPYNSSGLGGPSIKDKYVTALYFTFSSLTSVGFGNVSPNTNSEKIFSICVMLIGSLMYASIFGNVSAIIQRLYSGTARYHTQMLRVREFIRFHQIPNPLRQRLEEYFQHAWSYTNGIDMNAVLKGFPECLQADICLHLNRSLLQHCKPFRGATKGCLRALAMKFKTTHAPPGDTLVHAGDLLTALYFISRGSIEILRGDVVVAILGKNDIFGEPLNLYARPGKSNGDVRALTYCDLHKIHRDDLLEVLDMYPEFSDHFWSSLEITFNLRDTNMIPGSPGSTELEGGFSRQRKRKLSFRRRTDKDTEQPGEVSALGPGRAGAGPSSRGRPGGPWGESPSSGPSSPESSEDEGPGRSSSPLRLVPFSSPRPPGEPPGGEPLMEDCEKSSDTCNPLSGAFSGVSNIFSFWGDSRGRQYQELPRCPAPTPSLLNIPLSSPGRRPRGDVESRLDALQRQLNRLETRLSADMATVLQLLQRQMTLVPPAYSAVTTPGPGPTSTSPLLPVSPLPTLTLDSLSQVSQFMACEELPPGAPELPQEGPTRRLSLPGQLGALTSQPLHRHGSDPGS
row,Compound,"hERG current change (%, negative = inhibition) at 1uM"
1,CC1CCCCN1C(=O)COC(=O)c1ccc2ccccc2n1 (centres unmarked),15%
2,Cc1cc(OCCn2ccnc2)cc(C)c1Cl,15%
3,O=C(NCc1cccc(Br)c1)c1cc(-c2ccccc2)nn1CC1CC(c2cccc([N+](=O)[O-])c2)=NO1 (centres unmarked),15%
4,O=C(/C=N/O)NCCCn1ccnc1,5.65%
5,Cc1ccc2c(c1)c1ncn(Cc3ccc(F)cc3)c(=O)c1n2C,3.07%
6,CCOC(=O)c1c(-c2ccc(OC)cc2)nc2nonc2c1N,-14.4%
7,CCCc1[nH]nc2c1C(c1cccc(OC)c1)C(C#N)=C(N)O2 (centres unmarked),-8.04%
8,Cn1c(CNC(=O)CCNC(=O)c2ccccc2)cc(=O)n(C)c1=O,14.1%
9,CC(C)N1CCN(Cc2cccc3c2OCO3)CC1CCO (centres unmarked),12.7%
10,Clc1ccc(NC2=NCCC2)cc1Cl,2.32%
11,CCn1c(CSc2nc3ccccc3n2C)nc2ccccc21,-1.84%
12,CCOc1ccc(C(=O)CCC(=O)N(CC)CC(=O)Nc2c(F)cccc2F)cc1,-10.3%
13,O=C(Nc1ccccc1)c1cccc(N2CCCC2=O)c1,9.77%
14,O=C(Nc1ccccc1)NC(Cc1ccc(O)cc1)C(=O)O (centres unmarked),2.06%
15,CC(C)Cn1c(N)c(C(=O)COC(=O)CCNS(=O)(=O)c2ccccc2)c(=O)n(C)c1=O,-8.67%
16,O=C(O)CC(NC(=O)C12CC3CC(CC(C3)C1)C2)c1ccc(Cl)cc1 (centres unmarked),8.96%
17,CN(C)S(=O)(=O)Oc1ccc(C(=O)Nc2cccc(C(F)(F)F)c2)cc1,15.2%
18,COc1cc(C(=O)Cc2nc3ccccc3n2C)cc(OC)c1OC,13.8%
19,Cc1ccc(C)c(NC(=O)NNS(=O)(=O)c2ccc(C)c(C)c2)c1,12.5%
20,Cc1ccc(C2=NN(C(=O)CN3CCN(C4CCS(=O)(=O)C4)CC3)C(c3ccco3)C2)cc1 (centres unmarked),10.3%
21,CN=C(Nc1cccc(Cl)c1)SC1CC(=O)N(c2ccc(OC)cc2)C1=O (centres unmarked),12.8%
22,COC(=O)c1ccc(C(=O)OC)c(NC(=O)COC(=O)c2ccc(OC)c(OC)c2OC)c1,17.6%
23,CCOC(=O)C1CCCN(C2CC(=O)N(c3cccc(C(F)(F)F)c3)C2=O)C1.Cl (centres unmarked),-2.97%

row,Compound,"hERG current change (%, negative = inhibition) at 1uM"
1,CCC(COC)NCc1cn(-c2ccc(OC)cc2)nc1-c1cccc(F)c1 (centres unmarked),-17.6%
2,COC(=O)CSc1nc2c(c(-c3ccco3)c1C#N)CCCC2,4.99%
3,COc1ccc(NC(=O)C2C3C=CC(C3)C2C(=O)NCc2ccccn2)c(OC)c1 (centres unmarked),11.8%
4,O=c1[nH]nc(SCc2ccccc2)n1C1CC2C=CC1C2 (centres unmarked),12.9%
5,COc1ccc(-c2nc(-c3ccc(Br)o3)no2)cc1OC,9.14%
6,Cc1cccc(-n2nnc(C(=O)NCc3ccccn3)c2N)c1,6.6%
7,O=C(CCNc1n[nH]c(=O)[nH]c1=O)N1CCOCC1,-8.49%
8,CC(C)(C)c1ccc(C(=O)NCc2ccccc2)cc1,20.1%
9,Cn1c(-c2ccc(F)cc2)cnc1NCc1ccccc1,-17.4%
10,CCOc1ccc(NC(=O)CSc2nnc(C3CC3)n2C2CC2)cc1,0.687%
11,Cc1ccc(NC(=O)Nc2ccccc2)nc1,13.1%
12,C=CCn1c(SCC(=O)N(CCOC)c2c(N)n(CCCC)c(=O)[nH]c2=O)nnc1-c1ccc(Cl)cc1,-2.96%
13,COc1ccccc1CNC(=O)COc1ccc(C)cc1,8.73%
14,CC1(c2ccccc2)NC(=O)N(CC(=O)NC(=O)NC2CCCC2)C1=O (centres unmarked),7.27%
15,Cn1cnc([N+](=O)[O-])c1Nc1ccc(O)cc1,13.4%
16,CCCOc1cc(CC(=O)NCc2ccco2)ccc1OC,10.5%
17,Cc1cc(C)c(C)c(OCCCCN2CCCCC2)c1,-16.5%
18,NS(=O)(=O)c1cccc(NC(=O)COC(=O)CNC(=O)c2ccc(-c3ccccc3)cc2)c1,6.13%
19,CN(C)C(=O)Oc1ccc(OC(=O)c2ccccc2)cc1,10.4%
20,O=C(CCCOc1ccccc1)Nc1ccncc1,7.42%
21,Cc1ccc2c(c1)N(CC(=O)NCCc1ccccc1)C(=O)c1cccnc1O2,2.62%
22,COc1ccccc1CNC(=O)c1ccccc1N(C)S(C)(=O)=O,4.21%
23,Fc1ccc(Cn2ccc(-c3cnc(-c4ccccc4)s3)n2)cc1,11.9%

row,Compound,"hERG current change (%, negative = inhibition) at 1uM"
1,COc1n[nH]c(C(=O)Nc2nc3ccccc3s2)c1[N+](=O)[O-],11.3%
2,CN(C(=O)CSc1nc2ccccc2s1)c1c(N)n(Cc2ccccc2)c(=O)[nH]c1=O,7.34%
3,COc1ccc2c(c1)C(c1cccs1)=NNC(c1cccnc1)=N2,16.1%
4,N#Cc1cc2c(=O)n3ccccc3nc2n(Cc2cccnc2)c1=O,2.54%
5,Cc1ccc2c(c1)cc1c(=O)n(CC(=O)NCCCc3ccccc3)nc(C)n12,14.2%
6,CCOc1ccc2c(c1)-c1c(ssc1=S)C(C)(C)N2C(=O)CSC1=NCCS1,6.46%
7,Cc1ccc(C(=O)COC(=O)C2CC3CCCC(C2)C3=O)cc1[N+](=O)[O-] (centres unmarked),11.7%
8,CCc1nn2cc(-c3ccccc3)nc2s1,9.57%
9,COc1cccc(-n2nnc3c(=O)n(CC(=O)N4CCCCC4)cnc32)c1,4.88%
10,CNC(=O)c1ccccc1Sc1ccccc1C#N,15.5%
11,O=C(O)c1ccccc1C(=O)NCCc1ccc(Cl)cc1,12.8%
12,CCOc1ccccc1CNC(=O)CCc1cn(C)c2ccccc12,17.4%
13,Cc1ccc(S(=O)(=O)NCCN2CCNC2=O)cc1,8.97%
14,OCCN(CC#CCC(O)(c1ccccc1)C1CCCC1)CCO (centres unmarked),11.1%
15,CCOC(=O)c1cc2sccc2n1CC(=O)N1CCCC1,4.26%
16,O=C(O)c1ccc(N=NN2CCOCC2)cc1,7%
17,COc1cc([N+](=O)[O-])ccc1NC(=O)CSc1ccccn1,3.11%
18,CCn1c(SCC(=O)Nc2ccc3c(c2)OCCO3)nnc1-c1cccs1,-11.9%
19,CC1CCC2(CC1)C(Nc1cccc(Cl)c1)=NC(=S)N2CC#N (centres unmarked),13.4%
20,COc1cccc(-c2nc(CSCC(=O)N3CCc4ccccc43)c(C)o2)c1,7.95%
21,CCCCCCCOc1ccc(-c2ccc(C#N)cn2)cc1,4.27%
22,CN(C)CC1CCCCC1C1(O)c2ccccc2CSc2sccc21 (centres unmarked),4.1%
23,O=C(c1cc2c(s1)-c1ccccc1OC2)N1CCN(c2ccccn2)CC1,-0.51%

row,Compound,"hERG current change (%, negative = inhibition) at 1uM"
1,CCC(=O)c1ccc(N2CCN(C(=O)COc3ccccc3F)CC2)c(F)c1,-19.1%
2,CCOC(=O)N1CCC(NC(=O)c2cc(COc3c(C)cccc3C)on2)CC1,-3.61%
3,O=C(NCc1ccc2c(c1)OCO2)c1cc(=O)[nH]c2ccccc12,12.4%
4,COc1ccccc1CNC(=O)Cn1cccc1C(=O)c1ccccc1,14.4%
5,Cc1nc2ccc(S(=O)(=O)NC(C(=O)NCc3ccc4c(c3)OCO4)C(C)C)cc2s1 (centres unmarked),13.5%
6,N#Cc1ccc(OCc2nnc(-c3ccc([N+](=O)[O-])cc3)o2)cc1,-10.9%
7,Cc1cccc(OCCCCCn2ccnc2)c1C,2.78%
8,CCCCOc1ccc(Cc2c(COCC)[nH]c(=S)[nH]c2=O)cc1,13%
9,O=C(COc1ccccc1Cl)Nc1cccnc1,-1.57%
10,COCCn1c(SCC(=O)NCc2ccccc2)nc2ccccc21,8.71%
11,CS(=O)(=O)N1CCCC(C(=O)Nc2ccc(F)cc2)C1 (centres unmarked),13.8%
12,COc1cc(NC(=O)CCCC(=O)OCC(F)(F)C(F)F)nc(OC)n1,5.08%
13,O=C(N/N=C\c1cccnc1)c1cc(-c2ccc(Cl)s2)[nH]n1,8.22%
14,COc1ccc(S(=O)(=O)N2CCOCC2)cc1NC(=O)Cc1ccccc1Cl,9.04%
15,COCC1CCCN(C(=O)c2ccc3oc(Cc4ccc(Cl)cc4)nc3c2)C1 (centres unmarked),5.51%
16,Cn1c(SCC(=O)N2c3ccccc3CCc3ccccc32)nnc1-c1cc2ccccc2cc1O,9.91%
17,Cc1ccc(C(C)C)cc1OCCOCCN1CCCC1,-1.76%
18,O=C1CC(SC(=Nc2ccccc2)Nc2ccccc2)C(=O)N1c1cccc2ccccc12 (centres unmarked),14.8%
19,CCN1C(=O)C2C(C1=O)N1C(c3cccs3)C3C(=O)N(CC)C(=O)C3N1C2c1cccs1 (centres unmarked),12.4%
20,O=C(C1CCN(c2nnc(-n3cccc3)s2)CC1)N1CCOCC1,-2.26%
21,CCOc1ccccc1CN1C(=O)c2ccccc2C1C(=O)NCC1CCCO1 (centres unmarked),4.32%
22,CCOC(=O)Cc1csc(NC(=O)C(C)(C)CC)n1,9.85%
23,O=c1c2cc3c(cc2[nH]c(=S)n1Cc1ccco1)OCO3,13.5%
